Results as given in patent publication US20140377340A1, “HLA-DR BINDING PEPTIDES AND THEIR USES” (priority 2007, published 2014).
At least one peptide structure holds a part that was inferred or is arguable (an end, a ring closure or a residue).

What was measured:
[1] = biological target: T1, purified HLA DRB1*0301 (Homo sapiens, UniProt P01903+P01911, A100K/A102G/A103R/A169T/F55Y/I96L/K41T/L162R/M171V/P40S/Q125H/Q178H/Q39Y/R42S/S66N/T106N/T262R/W38E/Y61H); assay: HLA-DR radioligand binding inhibition assay, DRB1*0301; settings: read-out: IC50 nM purified HLA DRB1 *0301
T1 construct: purified from EBV transformed homozygous cell lines or single MHC allele transfected 721.221, C1R, or fibroblast lines; made in house
Method: (§1) Instead, wells of an opaque white 96-well Optiplate (Packard) are coated with 3 μg (100 μl@ 30 μg/ml) of HLA-specific antibody (Ab) that “capture” complexes of radiolabeled MHC and unlabeled peptide transferred from the molecular binding assay plate in 100 μl of 0.05% NP40/PBS. After a 3-hour incubation period, the supernatant is decanted and scintillation fluid (Microscint 20) added. Captured complexes are then measured on a microplate scintillation and luminescence counter (TopCount NXTTM; Packard).
(§2) HLA-DR purification. Fifteen distinct HLA-DR molecules were used in quantitative assays to measure the binding of peptides to solubilized HLA-DR molecules. […] Briefly, columns of inactivated Sepharose CL4B and Protein A Sepharose were used as pre-columns. HLA-DR molecules were captured by passage of lysates over LB3.1 monoclonal antibody (anti-HLA-DRA) columns. Antibody columns were washed with 10 mM Tris-HCL, pH8.0 with 1% (v/v) NP-40, followed by PBS containing 0.4% (w/v) n-octylglucoside.
(§3) Briefly, 1-10 nM of radiolabeled peptide was co-incubated for 2 days at either room temperature or 37° C. with 1 μM to 1 nM purified HLA-DR molecules in the presence of a cocktail of protease inhibitors. Assays were performed at various pH conditions, ranging from pH 4 to pH 7. […] After incubation, the percentage of HLA-DR-bound radioactivity is determined by capturing HLA-DR/peptide complexes on Optiplates (Packard Instruments, Meriden, Conn.) coated with the LB3.1 antibody and determining bound counts per minute using the TopCount microscintillation counter (Packard Instruments).

[2] = biological target: T2, purified HLA DRB1*1501 (Homo sapiens, UniProt P01903+P01911); assay: HLA-DR radioligand binding inhibition assay, DRB1*1501
T2 construct: purified from EBV transformed homozygous cell lines or single MHC allele transfected 721.221, C1R, or fibroblast lines; made in house
Method: as §1, §2, §3

[3] = biological target: T3, purified HLA DRB5*0101 (Homo sapiens, UniProt P01903+Q30154); assay: HLA-DR radioligand binding inhibition assay, DRB5*0101; settings: read-out: IC50 nM purified HLA DRB5 *0101
T3 construct: purified from EBV transformed homozygous cell lines or single MHC allele transfected 721.221, C1R, or fibroblast lines; made in house
Method: as §1
as §2, with “Antibody columns were washed with 10 mM Tris-HCL, pH8.0 with 1% (v/v) NP-40, followed by PBS containing 0.4% (w/v) n-octylglucoside.” left out
as §3, with “inhibitors.” for “inhibitors. Assays were performed at various pH conditions, ranging from pH 4 to pH 7.”

[4] = tested on: peptide-specific T cells in PBMC; assay: 10-day interferon-gamma ELIspot with PBMC of breast or ovarian cancer patients and healthy controls; format: cell-based, human; settings: fraction of breast or ovarian cancer patients with mean T cell values above cutoff (mean + 2 SD of healthy donors)
Excerpt: Each panel represents a unique peptide and each data point is derived from one individual. The grey box (i.e. cutoff) delineates the region that constitutes the mean and two standard deviations calculated from the normal healthy individuals. The percentages represent the fraction of patients that had mean T cell values above the cutoff. The peptides that are circled are those in which a higher fraction of the patients responded compared to the normal healthy controls. These peptides are considered to be the best vaccine candidates. However, it is clear that the rigidness of this approach could potentially result in many false negatives. […] Despite this, we identified 5 candidates to move forward. The fidelity of this approach is evident from a prior study which has already shown that a HER-2/neu peptide, p884-899, which encompasses the binding motif of p885, is an HLA-DR4 epitope.
Enzyme-linked immunosorbent spot assay. A 10-day ELlspot for detecting low-frequency T cells was used to determine reactivity to the tumor antigen peptides (Table 1) as described (Knutson K L et al. J Clin Onc 2006;24: 4254-61). […] PMA/Ionomycin and the CEF pool were used as positive non-tumor related controls as previously described (Knutson, 2006).
Using predictive algorithms discussed above, candidate HLA-DR1-binding epitopes were identified. […]

[5] = tested on: 15 different HLA-DR molecules; assay: HLA-DR binding assays, panel of 15 different HLA-DR molecules (breadth of binding); settings: number of the 15 HLA-DR molecules bound (binders: 1000 nM or better)

T1 sequence (P01911 30-266 W38E/Q39Y/P40S/K41T/R42S/F55Y/Y61H/S66N/I96L/A100K/A102G/A103R/T106N/Q125H): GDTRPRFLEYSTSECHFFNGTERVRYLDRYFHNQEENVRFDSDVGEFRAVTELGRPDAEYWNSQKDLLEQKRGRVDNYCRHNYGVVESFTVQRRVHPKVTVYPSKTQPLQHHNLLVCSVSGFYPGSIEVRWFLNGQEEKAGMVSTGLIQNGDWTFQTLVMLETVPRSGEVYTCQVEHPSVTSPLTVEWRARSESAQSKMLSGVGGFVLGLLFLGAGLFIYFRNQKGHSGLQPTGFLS
T1 sequence (P01903 26-254): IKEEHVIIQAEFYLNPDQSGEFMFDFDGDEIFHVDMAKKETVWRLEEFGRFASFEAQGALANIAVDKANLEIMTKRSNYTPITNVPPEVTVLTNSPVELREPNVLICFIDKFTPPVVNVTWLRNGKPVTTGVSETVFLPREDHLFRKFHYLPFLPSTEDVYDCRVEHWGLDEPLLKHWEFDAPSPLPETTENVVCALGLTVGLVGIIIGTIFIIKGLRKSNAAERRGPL

Row | Structure (SMILES) | IC50 [1] [nM] | IC50 [2] [nM] | IC50 [3] [nM] | Percent of patients with responses [4] [%] | Total XRN [5]
1 | CC(C)C[C@H](NC(=O)[C@H](CC(=O)O)NC(=O)[C@H](CCCNC(=N)N)NC(=O)[C@H](Cc1c[nH]cn1)NC(=O)[C@@H](NC(=O)[C@H](CC(C)C)NC(=O)[C@H](CCCNC(=N)N)NC(=O)[C@@H](N)C(C)C)C(C)C)C(=O)N[C@@H](C)C(=O)N[C@@H](C)C(=O)N[C@@H](CCCNC(=N)N)C(=O)N[C@@H](CC(N)=O)C(=O)N[C@H](C(=O)N[C@@H](CC(C)C)C(=O)N[C@H](C(=O)O)C(C)C)C(C)C [Peptide 9019.0085] | 1500 | 1100 | 3420 | – | –
2 | CC[C@H](C)[C@H](NC(=O)[C@H](CCCCN)NC(=O)[C@H](CCCNC(=N)N)NC(=O)[C@H](CCSC)NC(=O)[C@H](CO)NC(=O)[C@@H]1CCCN1C(=O)[C@@H](N)CC(C)C)C(=O)N[C@H](C(=O)N[C@@H](C)C(=O)N[C@H](C(=O)N[C@@H](Cc1c[nH]c2ccccc12)C(=O)N[C@@H](CCSC)C(=O)N[C@@H](CC(C)C)C(=O)N[C@@H](CCC(=O)O)C(=O)N[C@H](C(=O)O)C(C)C)[C@@H](C)O)C(C)C [Peptide 9019.0150] | – | – | – | 13 | 13
3 | CSCC[C@H](NC(=O)[C@H](CO)NC(=O)[C@@H]1CCCN1C(=O)[C@@H]1CCCN1)C(=O)N[C@H](C(=O)N[C@@H](C)C(=O)N[C@@H](C)C(=O)NCC(=O)N[C@@H](CO)C(=O)N[C@H](C(=O)N[C@H](C(=O)N[C@@H](C)C(=O)N[C@@H](C)C(=O)N[C@H](C(=O)N[C@@H](CCC(N)=O)C(=O)O)C(C)C)C(C)C)C(C)C)C(C)C [Peptide 9019.0170] | – | – | – | 13 | 10
